{"source": "paper PMC12820563", "note": "Some of the results follow. The list includes weakly bound sequences.", "data": [{"target": "T1, MBP-FoxP3dN (UniProt Q99JB6)", "T1 sequence": "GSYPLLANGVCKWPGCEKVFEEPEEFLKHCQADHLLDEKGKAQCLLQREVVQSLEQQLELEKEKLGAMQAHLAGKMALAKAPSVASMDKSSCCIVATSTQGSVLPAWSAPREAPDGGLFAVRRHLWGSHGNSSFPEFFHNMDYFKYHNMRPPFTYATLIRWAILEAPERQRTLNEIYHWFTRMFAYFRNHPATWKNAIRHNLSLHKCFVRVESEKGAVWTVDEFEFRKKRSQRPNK", "assay": "PD-seq (MBP pull-down with sequencing)", "conditions": "20 mM Tris-HCl pH 7.5, 100 mM NaCl, 1.5 mM MgCl2, 0.4 uM protein, 0.1 uM dsDNA library, 30 min, room temperature, amylose pull-down; high values mean tight binding; double strand, one strand shown", "values": [{"sequence": "GATGATTGTTCTCCCAGCTGATGAATTGTATCCCTCGAGTAAACAAATTTTCCTAATCTTTCTGTTCAAGCGCCATCTAC", "binding signal (RPM ratio (pull-down/input))": 1.36}, {"sequence": "GATGATTGTTCTCCCAGCTGATGAATTTTTGCTGTCGAGTAAACAAATTTTCCTAATCTTTCTGTTCAAGCGCCATCTAC", "binding signal (RPM ratio (pull-down/input))": 0.548}, {"sequence": "GATGATTGTTCTCCCAGCTGATGAATTTTCACATTCGAGTAAACAAATTTTCCTAATCTTTCTGTTCAAGCGCCATCTAC", "binding signal (RPM ratio (pull-down/input))": 0.371}, {"sequence": "GATGATTGTTCTCCCAGCTGATGAATTTCCTCTCTCGAGTAAACAAATTTTCCTAATCTTTCTGTTCAAGCGCCATCTAC", "binding signal (RPM ratio (pull-down/input))": 0.291}, {"sequence": "GATGATTGTTCTCCCAGCTGATGAATTTGCTAGTTCGAGTAAACAAATTTTCCTAATCTTTCTGTTCAAGCGCCATCTAC", "binding signal (RPM ratio (pull-down/input))": 4.85}, {"sequence": "GATGATTGTTCTCCCAGCTGATGAATTAGTTTGGTCGAGTAAACAAATTTTCCTAATCTTTCTGTTCAAGCGCCATCTAC", "binding signal (RPM ratio (pull-down/input))": 5.41}, {"sequence": "GATGATTGTTCTCCCAGCTGATGAATTCTCAAGATCGAGTAAACAAATTTTCCTAATCTTTCTGTTCAAGCGCCATCTAC", "binding signal (RPM ratio (pull-down/input))": 0.209}, {"sequence": "GATGATTGTTCTCCCAGCTGATGAATTTTCCACCTCGAGTAAACAAATTTTCCTAATCTTTCTGTTCAAGCGCCATCTAC", "binding signal (RPM ratio (pull-down/input))": 0.229}, {"sequence": "GATGATTGTTCTCCCAGCTGATGAATTCCATCTCTCGAGTAAACAAATTTTCCTAATCTTTCTGTTCAAGCGCCATCTAC", "binding signal (RPM ratio (pull-down/input))": 0.534}, {"sequence": "GATGATTGTTCTCCCAGCTGATGAATTCCATATGTCGAGTAAACAAATTTTCCTAATCTTTCTGTTCAAGCGCCATCTAC", "binding signal (RPM ratio (pull-down/input))": 0.655}, {"sequence": "GATGATTGTTCTCCCAGCTGATGAATTATAAAGATCGAGTAAACAAATTTTCCTAATCTTTCTGTTCAAGCGCCATCTAC", "binding signal (RPM ratio (pull-down/input))": 0.233}, {"sequence": "GATGATTGTTCTCCCAGCTGATGAATTATCTCAGTCGAGTAAACAAATTTTCCTAATCTTTCTGTTCAAGCGCCATCTAC", "binding signal (RPM ratio (pull-down/input))": 0.275}, {"sequence": "GATGATTGTTCTCCCAGCTGATGAATTCTCTTTTTCGAGTAAACAAATTTTCCTAATCTTTCTGTTCAAGCGCCATCTAC", "binding signal (RPM ratio (pull-down/input))": 0.449}, {"sequence": "GATGATTGTTCTCCCAGCTGATGAATTGCGCTGATCGAGTAAACAAATTTTCCTAATCTTTCTGTTCAAGCGCCATCTAC", "binding signal (RPM ratio (pull-down/input))": 0.898}, {"sequence": "GATGATTGTTCTCCCAGCTGATGAATTCCACTGGTCGAGTAAACAAATTTTCCTAATCTTTCTGTTCAAGCGCCATCTAC", "binding signal (RPM ratio (pull-down/input))": 0.27}, {"sequence": "GATGATTGTTCTCCCAGCTGATGAATTCCTTGGCTCGAGTAAACAAATTTTCCTAATCTTTCTGTTCAAGCGCCATCTAC", "binding signal (RPM ratio (pull-down/input))": 0.222}, {"sequence": "GATGATTGTTCTCCCAGCTGATGAATTGTATCTCTCGAGTAAACAAATTTTCCTAATCTTTCTGTTCAAGCGCCATCTAC", "binding signal (RPM ratio (pull-down/input))": 1.51}, {"sequence": "GATGATTGTTCTCCCAGCTGATGAATTCCAGCTATCGAGTAAACAAATTTTCCTAATCTTTCTGTTCAAGCGCCATCTAC", "binding signal (RPM ratio (pull-down/input))": 0.58}, {"sequence": "GATGATTGTTCTCCCAGCTGATGAATTGAAATGCTCGAGTAAACAAATTTTCCTAATCTTTCTGTTCAAGCGCCATCTAC", "binding signal (RPM ratio (pull-down/input))": 0.58}, {"sequence": "GATGATTGTTCTCCCAGCTGATGAATTACTTGAATCGAGTAAACAAATTTTCCTAATCTTTCTGTTCAAGCGCCATCTAC", "binding signal (RPM ratio (pull-down/input))": 0.248}, {"sequence": "GATGATTGTTCTCCCAGCTGATGAATTCCTCAATTCGAGTAAACAAATTTTCCTAATCTTTCTGTTCAAGCGCCATCTAC", "binding signal (RPM ratio (pull-down/input))": 0.274}, {"sequence": "GATGATTGTTCTCCCAGCTGATGAATTCTTATAATCGAGTAAACAAATTTTCCTAATCTTTCTGTTCAAGCGCCATCTAC", "binding signal (RPM ratio (pull-down/input))": 0.359}, {"sequence": "GATGATTGTTCTCCCAGCTGATGAATTCACTTTGTCGAGTAAACAAATTTTCCTAATCTTTCTGTTCAAGCGCCATCTAC", "binding signal (RPM ratio (pull-down/input))": 0.686}, {"sequence": "GATGATTGTTCTCCCAGCTGATGAATTTTTACACTCGAGTAAACAAATTTTCCTAATCTTTCTGTTCAAGCGCCATCTAC", "binding signal (RPM ratio (pull-down/input))": 0.334}, {"sequence": "GATGATTGTTCTCCCAGCTGATGAATTGTTCTTGTCGAGTAAACAAATTTTCCTAATCTTTCTGTTCAAGCGCCATCTAC", "binding signal (RPM ratio (pull-down/input))": 0.412}, {"sequence": "GATGATTGTTCTCCCAGCTGATGAATTGGGTAGATCGAGTAAACAAATTTTCCTAATCTTTCTGTTCAAGCGCCATCTAC", "binding signal (RPM ratio (pull-down/input))": 0.323}, {"sequence": "GATGATTGTTCTCCCAGCTGATGAATTTTAGAGTTCGAGTAAACAAATTTTCCTAATCTTTCTGTTCAAGCGCCATCTAC", "binding signal (RPM ratio (pull-down/input))": 0.434}, {"sequence": "GATGATTGTTCTCCCAGCTGATGAATTACAGGGTTCGAGTAAACAAATTTTCCTAATCTTTCTGTTCAAGCGCCATCTAC", "binding signal (RPM ratio (pull-down/input))": 0.437}, {"sequence": "GATGATTGTTCTCCCAGCTGATGAATTTGGGTTATCGAGTAAACAAATTTTCCTAATCTTTCTGTTCAAGCGCCATCTAC", "binding signal (RPM ratio (pull-down/input))": 0.888}, {"sequence": "GATGATTGTTCTCCCAGCTGATGAATTCATGCTGTCGAGTAAACAAATTTTCCTAATCTTTCTGTTCAAGCGCCATCTAC", "binding signal (RPM ratio (pull-down/input))": 0.686}, {"sequence": "GATGATTGTTCTCCCAGCTGATGAATTGGCGTTGTCGAGTAAACAAATTTTCCTAATCTTTCTGTTCAAGCGCCATCTAC", "binding signal (RPM ratio (pull-down/input))": 1.16}, {"sequence": "GATGATTGTTCTCCCAGCTGATGAATTGTCTCCTTCGAGTAAACAAATTTTCCTAATCTTTCTGTTCAAGCGCCATCTAC", "binding signal (RPM ratio (pull-down/input))": 0.397}, {"sequence": "GATGATTGTTCTCCCAGCTGATGAATTTTCAGCGTCGAGTAAACAAATTTTCCTAATCTTTCTGTTCAAGCGCCATCTAC", "binding signal (RPM ratio (pull-down/input))": 0.439}, {"sequence": "GATGATTGTTCTCCCAGCTGATGAATTTGCTCCCTCGAGTAAACAAATTTTCCTAATCTTTCTGTTCAAGCGCCATCTAC", "binding signal (RPM ratio (pull-down/input))": 0.583}, {"sequence": "GATGATTGTTCTCCCAGCTGATGAATTGCGCGCGTCGAGTAAACAAATTTTCCTAATCTTTCTGTTCAAGCGCCATCTAC", "binding signal (RPM ratio (pull-down/input))": 2.67}, {"sequence": "GATGATTGTTCTCCCAGCTGATGAATTAGCGATTTCGAGTAAACAAATTTTCCTAATCTTTCTGTTCAAGCGCCATCTAC", "binding signal (RPM ratio (pull-down/input))": 0.695}, {"sequence": "GATGATTGTTCTCCCAGCTGATGAATTCTAAAAGTCGAGTAAACAAATTTTCCTAATCTTTCTGTTCAAGCGCCATCTAC", "binding signal (RPM ratio (pull-down/input))": 0.187}, {"sequence": "GATGATTGTTCTCCCAGCTGATGAATTGTATTGCTCGAGTAAACAAATTTTCCTAATCTTTCTGTTCAAGCGCCATCTAC", "binding signal (RPM ratio (pull-down/input))": 2.59}, {"sequence": "GATGATTGTTCTCCCAGCTGATGAATTGCCAGACTCGAGTAAACAAATTTTCCTAATCTTTCTGTTCAAGCGCCATCTAC", "binding signal (RPM ratio (pull-down/input))": 0.378}, {"sequence": "GATGATTGTTCTCCCAGCTGATGAATTCAGCCCTTCGAGTAAACAAATTTTCCTAATCTTTCTGTTCAAGCGCCATCTAC", "binding signal (RPM ratio (pull-down/input))": 0.806}]}]}
